Out of some 110,000 compounds screened, about 230 (0.21%) showed an effect of 50% or more. The list shows a part of the results.
Each molecule was assayed against DPAP1 (Plasmodium falciparum, UniProt Q8IIJ9) (assay: primary screen, percent inhibition; read by cleavage of a fluorogenic dipeptide substrate; higher = more effect of the substance).
Design: species or system P. falciparum D10 trophozoite lysates; single well
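Note: 30 min substrate incubation versus DMSO and 10 µM JCP410 controls.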

Chain of DPAP1 (Q8IIJ9 whole entry, looked up): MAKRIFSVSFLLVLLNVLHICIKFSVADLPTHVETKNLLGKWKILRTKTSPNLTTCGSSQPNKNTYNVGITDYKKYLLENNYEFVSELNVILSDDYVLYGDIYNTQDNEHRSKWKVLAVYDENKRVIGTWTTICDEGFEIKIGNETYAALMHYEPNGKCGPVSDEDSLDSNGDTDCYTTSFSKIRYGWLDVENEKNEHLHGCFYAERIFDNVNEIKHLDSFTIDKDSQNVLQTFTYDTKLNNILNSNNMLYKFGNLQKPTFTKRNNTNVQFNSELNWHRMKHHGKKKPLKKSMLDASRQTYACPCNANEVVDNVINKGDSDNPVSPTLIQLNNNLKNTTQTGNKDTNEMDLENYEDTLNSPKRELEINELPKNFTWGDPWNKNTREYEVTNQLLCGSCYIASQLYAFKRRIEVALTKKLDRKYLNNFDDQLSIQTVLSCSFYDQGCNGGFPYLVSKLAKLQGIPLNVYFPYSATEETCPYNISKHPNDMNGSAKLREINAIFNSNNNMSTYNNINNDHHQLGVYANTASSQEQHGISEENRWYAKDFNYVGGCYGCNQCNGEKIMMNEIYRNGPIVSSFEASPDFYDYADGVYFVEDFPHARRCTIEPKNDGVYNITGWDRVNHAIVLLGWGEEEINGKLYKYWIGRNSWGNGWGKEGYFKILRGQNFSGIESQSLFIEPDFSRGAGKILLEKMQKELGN

| Compound | % Inhibition @ 10 uM |
| --- | --- |
| Cc1c(C(=O)N2CCC(C(N)=O)CC2)sc(N)c1C#N | -0.436% |
| O=C(Nc1ccccc1N1CCOCC1)c1ccc(Cl)c(Cl)c1 | -5.92% |
| Nn1cnnc1SCc1ccccc1 | -3.06% |
| CC(C)CNC(=O)c1cccc2c1-c1ccccc1C2=O | 2.57% |
| CCCCCOC(=O)NC1CCS(=O)(=O)C1 (stereo not shown) | -2.44% |
| CCOC(=O)c1c(O)c(O)nc2ccccc12 | 0.992% |
| Cc1ccc2nc(C(=O)O)c(C(=O)O)nc2c1 | -3.33% |
| O=C(Cn1nnc(-c2ccc(OCc3ccccc3Cl)cc2)n1)NC1CCCC1 | 1.32% |
| c1ccc(C(c2ccccc2)n2nnnc2C2(N3CCCC3)CCCCC2)cc1 | -2.42% |
| Nc1cc2cccnc2c2ncccc12 | -4.61% |
| C=CCNc1nc(-c2ccc(F)cc2F)cs1 | 5.31% |
| Cc1ccc2nc(NC(=O)c3c(O)nc4ccccc4c3O)sc2c1 | 1.86% |
| Cc1cc(C)cc(C(=O)N(CCc2ccccc2)C2=CC3CCC(C2)N3C)c1 (stereo not shown) | -5.08% |
| CC1CCCC(C)N1c1nnc(N)s1 (stereo not shown) | 4.61% |
| CC(C)(C)C(=O)Nc1ccc(C(=O)Nc2ccc(C(=O)O)cc2)cc1 | 0.67% |
| CCC1CCc2c(sc(N)c2C(N)=O)C1 (stereo not shown) | 12.1% |
| CCOC(=O)N1CCN(C(=O)c2cc3c(s2)-c2ccccc2S(=O)(=O)C3)CC1 | -7.72% |
| N#C/C(=C\c1ccc(-c2ccc(Cl)cc2)o1)S(=O)(=O)c1ccccc1 | 15.9% |
| COc1ccc(OC)c(CCNC(=O)CCc2c(C)nc3c(-c4ccc(F)cc4)c(C)nn3c2C)c1 | 1.26% |
| CC1(C)Cc2c(c(N3CCOCC3)nc3sc(C#N)c(N)c23)CO1 | -0.85% |
| CCCC[C@H](NC(=O)c1cccc(N)c1)C(=O)NCC#N | -3.49% |
| N#C/C(=C/C=C/c1ccccc1)c1nc(-c2cc3cc(Br)ccc3oc2=O)cs1 | 7.04% |
| CC1CN(C)C(c2ccccc2)CC1(O)c1ccccc1 (stereo not shown) | -1.76% |

| Compound | % Inhibition @ 10 uM |
| --- | --- |
| O=C1CC(Cc2ccccc2)C(=O)N1CCOC12CC3CC(CC(C3)C1)C2 (stereo not shown) | -2.19% |
| Cc1c(C(=O)O)oc2ccc(S(=O)(=O)NCCc3ccccc3)cc12 | -0.519% |
| CSCCC(Nc1ncnc2ccccc12)C(=O)O (stereo not shown) | -11.7% |
| COC(=O)C1=C(C)NC(=O)CC1c1ccc2c(c1)OCO2 (stereo not shown) | -3.32% |
| Cc1ccc2nc3c(O)n(C)nnc-3c2c1 | -7.19% |
| Cc1nc2c(C(=O)N3CCc4ccccc4C3)cnn2c(O)c1Cc1ccc(F)cc1Cl | -5.52% |
| COc1cc(CNCCSc2nnnn2-c2ccccc2)cc(OC)c1OC | -4.71% |
| Cc1cccc(C2=N/C(=C\c3cccc4ccccc34)C(=O)O2)c1 | -0.769% |
| CN(C)/C=C1/N=C(c2ccccc2)c2cc(Cl)ccc2N(C)C1=O | -1.42% |
| O=C1CC(c2ccccc2)=NN1c1nc(-c2ccccc2)cc(-c2ccc(F)cc2)n1 | -5.11% |
| CCc1ccc2c(Cl)c(C(=O)NCc3ccncc3)sc2c1 | 0.343% |
| COc1ccc(CNc2cc(-c3ccccc3)nc3nncn23)cc1 | -2.57% |
| CCOc1ccc(Nc2nc(-c3ccc(CC(C)C)cc3)cs2)cc1 | -5.92% |
| Cc1ccc(N2CCn3c2cc(C)c(C#N)c3=O)cc1C | -5.07% |
| Cc1ccc(S(=O)(=O)c2nc(S(C)(=O)=O)sc2NC(C)c2ccccc2)cc1 (stereo not shown) | 1.15% |
| COc1ccc(NC(=O)c2c(Cl)cnn2C)c(C)c1 | 2.38% |
| O=S1(=O)N=C(Oc2ccc(Cl)cc2)c2ccccc21 | -0.884% |
| O=C(Cn1ncn2c(cc3ccccc32)c1=O)NCCc1cccs1 | 1.68% |
| COc1cc2c(cc1OC)C(c1ccccc1C(F)(F)F)CC(=O)N2 (stereo not shown) | -5.23% |
| Cc1ccc(C)c(NC(=O)c2ccccc2[N+](=O)[O-])c1 | -1.48% |
| COc1ccc(/N=C2\CCCN2C(=O)Nc2cccc(Cl)c2)cc1 | 2.01% |
| Cn1c2c(c(=O)n(C)c1=O)C(c1cc(Cl)ccc1Cl)C1=C(O)c3ccccc3C1=N2 (stereo not shown) | 7.1% |
| COc1ccccc1-c1cc(C(=O)Nc2cnn(Cc3ccc(Cl)cc3Cl)c2)no1 | 10.2% |

| Compound | % Inhibition @ 10 uM |
| --- | --- |
| CN1CCN(C2CC(=O)N(c3ccc(Cl)cc3Cl)C2=O)CC1 (stereo not shown) | -2.07% |
| S=C1Nc2cc(Cl)ccc2Sc2ccccc21 | 4.11% |
| O=C(CCNC(=O)c1ccc(Br)o1)NC1CCCC1 | -5.64% |
| O=C(c1ccc(Br)cc1)c1sc2nccc3c2c1N=CN3c1ccccc1 | 2.4% |
| CCCOc1ccccc1C1CC(=O)NC(C)=C1C(=O)OCc1ccc(OC)cc1 (stereo not shown) | 1.97% |
| CC1=C(C(=O)OCC(C)C)C(c2ccc(Cl)cc2)NC(=O)N1 (stereo not shown) | 4.79% |
| O=C(Cn1nc(Cc2cccnc2)c2ccccc2c1=O)N1CCN(C2CCCCC2)CC1 | -4.69% |
| Cc1cc(C)nc(NC(=O)COc2ccc(Cl)cc2Cl)c1 | -5.81% |
| CCC(Sc1nc2cccnc2[nH]1)C(=O)N1CCCC1 (stereo not shown) | 4.43% |
| COc1ccc(N(CC(=O)Nc2ccccc2C(C)C)S(C)(=O)=O)c(OC)c1 | -0.795% |
| Cc1cc2c(c(S)n1)C(=O)O/C2=C\c1ccco1 | 67.6% |
| COc1cccc(-c2nc(CS(=O)(=O)CC(=O)N3CCc4ccccc4C3)c(C)o2)c1 | 3.19% |
| CCOC(=O)c1cc2cccc(Cl)c2[nH]1 | -2.4% |
| CCOP(=O)(CC(=O)O)c1ccccc1 (stereo not shown) | -5.9% |
| CCCCCc1ccc(-c2ccc(OC)cc2)nc1 | -0.436% |
| COc1ccc(-c2c(C(F)(F)F)oc3cc(O)ccc3c2=O)cc1 | -0.641% |
| O=c1c2ccccc2nc2c3ccccc3c(N3CCCCC3)nn12 | 15.1% |
| N#CCC(=N)Nc1sc2c(c1C#N)CCCC2 | 11.6% |
| O=C1CC(c2ccc(S(=O)(=O)NCCOc3ccccc3)cc2)CN1 (stereo not shown) | -2.5% |
| Cc1ccc2c(c1)c1c(n2CCC#N)CCN(C)C1 | 1.63% |
| CCN(CC)CCn1c2ccccc2c2c(C)cc(=O)sc21 | 1.17% |
